In all, about 310,000 compounds went through this assay and about 14,000 (4.5%) showed an effect of 50% or more. Effects have a minus sign here. Some of the results follow.
target: human ether-à-go-go-related gene (hERG) potassium channel (human, UniProt Q12809); assay: primary screen, population patch clamp on CHO cells stably expressing hERG
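Note: peak tail current of the secondary pulse compared with the same well before compound.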

Sequence of human ether-à-go-go-related gene (hERG) potassium channel (Q12809 whole entry, looked up): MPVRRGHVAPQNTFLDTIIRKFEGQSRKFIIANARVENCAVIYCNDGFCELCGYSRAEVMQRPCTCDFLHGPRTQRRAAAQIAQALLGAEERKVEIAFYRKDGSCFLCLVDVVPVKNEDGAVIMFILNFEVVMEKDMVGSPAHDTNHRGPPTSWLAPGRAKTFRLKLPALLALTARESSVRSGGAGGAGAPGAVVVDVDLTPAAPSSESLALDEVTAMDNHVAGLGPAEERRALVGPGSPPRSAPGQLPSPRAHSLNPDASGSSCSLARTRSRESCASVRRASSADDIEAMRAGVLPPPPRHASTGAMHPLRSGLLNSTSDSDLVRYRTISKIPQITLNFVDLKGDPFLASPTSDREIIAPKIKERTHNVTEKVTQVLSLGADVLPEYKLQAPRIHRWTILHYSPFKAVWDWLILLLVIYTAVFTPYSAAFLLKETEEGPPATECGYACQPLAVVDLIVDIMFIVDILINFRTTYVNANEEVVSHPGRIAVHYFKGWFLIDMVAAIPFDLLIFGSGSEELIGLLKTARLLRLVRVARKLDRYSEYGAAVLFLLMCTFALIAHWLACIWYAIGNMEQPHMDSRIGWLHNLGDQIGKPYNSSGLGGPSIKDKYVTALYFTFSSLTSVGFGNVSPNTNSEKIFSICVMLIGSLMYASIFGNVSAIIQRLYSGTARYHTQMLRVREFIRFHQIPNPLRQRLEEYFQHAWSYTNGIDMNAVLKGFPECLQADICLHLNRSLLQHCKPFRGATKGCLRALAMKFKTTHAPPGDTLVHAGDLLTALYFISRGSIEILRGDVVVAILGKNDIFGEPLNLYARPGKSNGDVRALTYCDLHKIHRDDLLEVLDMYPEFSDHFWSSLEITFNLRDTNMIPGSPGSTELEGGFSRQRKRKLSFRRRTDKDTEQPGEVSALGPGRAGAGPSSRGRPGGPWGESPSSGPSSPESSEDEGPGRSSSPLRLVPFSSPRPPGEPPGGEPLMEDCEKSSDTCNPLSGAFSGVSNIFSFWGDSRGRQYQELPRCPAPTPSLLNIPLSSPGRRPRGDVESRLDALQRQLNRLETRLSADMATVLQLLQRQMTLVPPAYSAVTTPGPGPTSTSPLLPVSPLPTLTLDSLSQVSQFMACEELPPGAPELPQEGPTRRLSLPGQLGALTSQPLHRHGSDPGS

Row | Structure (SMILES) | hERG current change (%, negative = inhibition) at 10uM
1 | Cc1ccc(NC(=O)Cn2nc(-c3ccco3)ccc2=O)cc1Cl | 10.8%
2 | COc1cccc(C(=O)NC(=O)Nc2cc(C)on2)c1 | 14.7%
3 | COc1ccc(CCN(C)C(=O)C(CCSC)NC(=O)c2ccco2)cc1OC (centres unmarked) | 8.6%
4 | Cc1ccc(C)c(Cn2nnc3c(=O)[nH]c(C4CCCN(C(=O)CC(C)C)C4)nc32)c1 (centres unmarked) | -14.6%
5 | CCOc1ccc(CNS(=O)(=O)c2c(C)nc3sccn3c2=O)cc1OC | -66.1%
6 | O=C(Nc1c2c(nn1-c1ccc(F)cc1)CS(=O)(=O)C2)c1ccc2c(c1)OCO2 | -33.2%
7 | COc1ccc(-n2c(-c3ccc(Cl)cc3)c[n+]3c2CCCCC3)cc1.[Br-] | -29.8%
8 | Cc1ccc(OCCC(=O)OCC(=O)Nc2cc(C)nn2-c2ccccc2)cc1 | -32.7%
9 | CN(CC1CCCCO1)C(=O)c1cc(COc2ccc(F)cc2Cl)on1 (centres unmarked) | -87.1%
10 | Nc1nc(CC(=O)CSc2ccc(Cl)cc2)nc(Nc2ccc(F)cc2)n1 | 6.31%
11 | Cc1ccc(NC(=O)CSCc2cc(=O)n3ccsc3n2)cc1 | 14.2%
12 | Cc1ccccc1N/C=C/C(=C(C#N)C#N)N(C)C | -7.8%
13 | CCCSc1ccc([C@H]2N[C@@](Cc3ccccc3)(C(=O)OC)[C@H]3C(=O)N(CC)C(=O)[C@@H]23)cc1.O=C(O)C(F)(F)F | 6.44%
14 | CN(C(=O)CC1C(=O)NCCN1Cc1ccccc1C(F)(F)F)C1CCOCC1 (centres unmarked) | 19.2%
15 | CC(=O)c1cn(Cc2ccccc2)c(=O)n(Cc2ccc(F)cc2)c1=O | -4.64%
16 | Cc1cc(C(=O)N2CC(C)CC(C)C2)n(-c2ccccc2)n1 (centres unmarked) | 1.03%
17 | CC(=O)c1ccc(N2CCN(c3ccc(C(N)=O)cc3[N+](=O)[O-])CC2)cc1 | -10.9%
18 | NC(=O)C1CCN(C(=O)COc2ccc3ccccc3c2)CC1 | 18.2%
19 | COc1ccc(OC)c(-c2cc(C(=O)Nc3c(C)n(C)n(-c4ccccc4)c3=O)no2)c1 | -14.5%
20 | O=C(NCCc1c[nH]c2ccccc12)OCCSS(=O)(=O)[O-].[Na+] | 9.49%
21 | Cc1ccc(Sc2ncccc2COC(=O)NC(C)C)cc1 | 4.99%
22 | Nc1cccc(Oc2ccc3c(c2)C(=O)NC3=O)c1 | 8.45%

Row | Structure (SMILES) | hERG current change (%, negative = inhibition) at 10uM
23 | CN(c1ccccc1)S(=O)(=O)c1ccc(C(=O)N2CCCC2)cc1 | 5.6%
24 | CCOC(=O)N1CCN(S(=O)(=O)c2c(C)nc3sccn3c2=O)CC1 | 21%
25 | Cc1cccc(-n2c(C)cc(/C=N/n3cnnc3)c2C)c1 | -0.869%
26 | Cc1ccc(-n2ncc3c(=O)n(CC(=O)NCC4CCCO4)cnc32)cc1 (centres unmarked) | -2.01%
27 | Cc1ccc(NC(=O)COc2ccc(-c3nnco3)cc2)cc1S(=O)(=O)N1CCOCC1 | -3.68%
28 | CC(C)CCNC(=O)NC(=O)COC(=O)CNC(=O)C1CCCCC1 | -3.51%
29 | CCCCN1CNC(=S)N(CCc2ccccc2)C1 | -24.7%
30 | COc1cc2c(=O)n(CC3CCCO3)c(=O)n(CC(=O)Nc3ccccc3)c2cc1OC (centres unmarked) | -2.85%
31 | CCc1ccc(OCC(=O)Nc2ccc3c(c2)OCCO3)cc1 | 8.26%
32 | Cc1ccc(OCCn2ccnc2)c([N+](=O)[O-])c1 | -4.29%
33 | O=C(c1cc(COc2ccc(F)cc2F)on1)N1CCSCC1 | -11.7%
34 | Cc1nc(-c2ccccc2)sc1C1(C)CC(c2ccccc2F)=NO1 (centres unmarked) | 1.13%
35 | CCCC(=O)Nc1cc(C(F)(F)F)ccc1N1CCOCC1 | 3.3%
36 | CN(C(=O)COC(=O)CN1C(=O)c2ccccc2C1=O)c1c(N)n(Cc2ccccc2)c(=O)[nH]c1=O | -4.4%
37 | CCC(=NCc1ccco1)c1c(O)n(-c2ccccc2)c(=O)[nH]c1=O | -0.174%
38 | Cc1ccc(C(=O)CSc2nnc(N)s2)c(C)c1 | -2.46%
39 | O=C(Nc1ccc(Oc2cccnc2)cc1)c1ccccc1Cl | 9.45%
40 | C=C[C@]1(C)C[C@@H](OC(=O)CSCCN(CC)CC)[C@]2(C)C(C)CC[C@]3(CCC(=O)[C@H]32)[C@@H](C)[C@@H]1O (some centres unmarked) | -61.9%
41 | CC[N+]12CCC(CC1)C(C(O)(c1ccccc1)c1ccccc1)C2.[Br-] (centres unmarked) | -5.24%
42 | C=CCN(c1ccccc1)S(=O)(=O)c1cccc2cccnc12 | -19%
43 | Clc1ccc(CSc2ccc(-c3cccnc3)nn2)cc1 | -48.6%
44 | C#CCCOC(=O)N1C2=NC(C(=O)OC)=C(C(=O)OC)[C@@H]3N(C)c4ccccc4[C@]23C[C@H]1C(=O)OC | -9.95%

— publication PMC4336329 (PLoS ONE, 2015)
